Where “and” joins values, the source holds several entries; their conditions need not be identical. Equal values may be shown once. The campaign covered roughly 200,000 compounds. About 4,500 (2.2%) were called active. The inconclusive results got no clear call from the source; some entries with a clear call stand among them for comparison. Calls follow the shape of the dose curve; as a rule, active = well fitted inhibition curve with a large enough effect; inconclusive = small, poorly fitted or top-dose-only effect, or effect the other way; inactive = flat fitted curve, though single readings scatter. Potencies beside an inconclusive call are fits to weak or partial responses and may not hold up.
Target: Cruzipain (Trypanosoma cruzi) (UniProt P25779)
Test: qHTS Assay for Promiscuous and Specific Inhibitors of Cruzain (without detergent); also: nearly all actives have a fitted effect of over 40% in size;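 as to max response, negative = inhibition: plate controls were enzyme without inhibitor for no effect and buffer without enzyme for full effect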
Conditions: purified cruzain, Z-FR-AMC fluorescence, no detergent
Summary of the method: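 Detergent-free condition (0.00005% Triton X-100) in acetate buffer pH 5.5 with DTT. 1.5 nM enzyme and compound were pre-mixed 15 min, then 2 uM Z-FR-AMC substrate added; reaction progress from fluorescence change between first and third reads (60 s).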
Potency is read from the fitted curve at half-maximal effect; tags tell the direction and shape of the fitted curve.

Chain of UniProt P25779 (P25779 whole entry, looked up): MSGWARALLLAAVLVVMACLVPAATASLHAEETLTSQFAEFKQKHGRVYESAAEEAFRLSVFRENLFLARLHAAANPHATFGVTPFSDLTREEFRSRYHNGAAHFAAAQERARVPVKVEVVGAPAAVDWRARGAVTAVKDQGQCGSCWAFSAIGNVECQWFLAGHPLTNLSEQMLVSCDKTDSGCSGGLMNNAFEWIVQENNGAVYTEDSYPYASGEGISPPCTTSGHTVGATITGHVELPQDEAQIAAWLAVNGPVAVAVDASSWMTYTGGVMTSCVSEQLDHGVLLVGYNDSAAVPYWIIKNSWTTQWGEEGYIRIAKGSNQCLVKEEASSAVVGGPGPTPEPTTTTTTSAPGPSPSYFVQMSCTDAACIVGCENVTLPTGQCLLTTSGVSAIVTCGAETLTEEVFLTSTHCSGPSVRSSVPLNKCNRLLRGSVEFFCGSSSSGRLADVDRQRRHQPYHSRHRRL

| Structure (SMILES) | max response, negative = inhibition | Potency |
| --- | --- | --- |
| COc1cc(OC)cc(-n2c(=O)c3ccccc3n(CC(=O)NCCc3ccc(OC)c(OC)c3)c2=O)c1 | inactive: -6.22% | – |
| COc1ccc2cc(CNc3ccc(OC)c(OC)c3)c(=O)n(CC(=O)Nc3ccc(C)cc3)c2c1 | – | inconclusive: 25.1 µM [activator, single point] |
| CCCOc1cccc(C(=O)Nc2ccc(-c3nc4ccccc4o3)cc2)c1 | inactive: 1.18% | – |
| O=C(CSc1nc2c(c(=O)[nH]1)CN(Cc1ccc3c(c1)OCO3)CC2)Nc1ccc(F)cc1 | inactive: -7.19% | – |
| COc1ccc(-n2nnc3c(=O)n(Cc4ccccc4C)cnc32)cc1 | – | inconclusive: 31.6 µM [inhibitor, single point] |
| COc1ccc(-c2nc(CNS(=O)(=O)c3ccc(F)cc3)cs2)cc1 | – | inconclusive: 0.199 µM [activator, single point] |
| COc1ccccc1N1CCN(C(=O)c2c3c(nc4ccccc24)C(=O)N(C2CCCCC2)C3)CC1 | inactive: -0.894% | – |
| CC(C)(CNC(=O)c1cc2ccccc2o1)N1CCOCC1 | inactive: 11% | – |
| O=C(Nc1ccccc1N1CCN(c2ccccc2)CC1)C12CC3CC(CC(C3)C1)C2 | – | active: 25.1 µM |
| CC(=O)c1cc(-c2ccccc2)n(CCC(=O)Nc2cc(C)cc(C)c2)c1C | inactive: -3.24% | – |
| CCOc1ccccc1NC(=O)CSc1cc(=O)n(CC)c2ccccc12 | inactive: 30.1% | – |
| O=C(NC(=S)N1CCCc2ccccc21)c1ccc(Br)cc1 | – | inconclusive: 25.1 µM [inhibitor, single point] |
| Cn1c(=O)c2[nH]c(-c3ccc(S(=O)(=O)O)cc3)nc2n(C)c1=O | – | inconclusive: 12.6 µM [activator, partial curve] |
| Cn1c(C(=O)NCc2cccc(F)c2)cc2cc(S(=O)(=O)N3CCCCC3)ccc21 | – | inconclusive: 31.6 µM [inhibitor, single point] |
| COc1ccc(C(=O)NC(=S)N2CCCCC2)cc1[N+](=O)[O-] | inactive: -5.09% | – |
| COc1ccc(/C=N/NC(=O)c2ccc(COc3ccccc3Cl)o2)cc1 | – | inconclusive: 39.8 µM [inhibitor, single point] |
| COc1ccc(-c2onc(C)c2C)cc1S(=O)(=O)N1CCC(C)CC1 | – | inconclusive: 39.8 µM [activator, single point] |
| CCOC(=O)N1CCC(NC(=O)c2cc(S(=O)(=O)N3CCc4ccccc43)cn2C)CC1 | – | inconclusive: 39.8 µM [activator, single point] |
| NC(=O)CSc1nnc(-c2ccc(S(=O)(=O)N3CCCCC3)cc2)n1-c1ccccc1 | – | inconclusive: 31.6 µM [activator, single point] |
| COc1ccc(C2C(C#N)=C(N)Nc3nc4ccccc4n32)cc1 (stereo unspecified) | – | inconclusive: 39.8 µM [inhibitor, single point] |
| O=C(c1cc2c(ccc3ccccc32)oc1=O)N1CCCC1 | – | inconclusive: 39.8 µM [inhibitor, single point] |

| Structure (SMILES) | max response, negative = inhibition | Potency |
| --- | --- | --- |
| COc1cccc(/C(C#N)=C/c2c(-c3ccc(Cl)cc3)nc3c(C)cccn23)c1 | – | inconclusive: 39.8 µM [inhibitor, single point] |
| COc1cccc(OC)c1C(=O)Nc1ccc2c(c1)CCCN2S(=O)(=O)c1ccc(C)cc1 | – | inconclusive: 25.1 µM [inhibitor, single point] |
| COc1ccc(N=C2C(=Nc3ccc(OC)cc3)N(c3ccc(OC)cc3)C(=S)N2C(=O)c2ccc(OC)cc2)cc1 | – | active: 5.01 µM |
| O=[N+]([O-])c1ccc(-c2cnc(SC(c3ccccc3)c3ccccc3)[nH]2)cc1 | – | inconclusive: 39.8 µM [inhibitor, single point] |
| O=C(Nc1nnc(-c2ccc(F)cc2)s1)C1CCN(S(=O)(=O)c2ccc(Cl)cc2)CC1 | – | inconclusive: 39.8 µM [inhibitor, single point] |
| CCOC(=O)c1c(C)[nH]c(C)c1S(=O)(=O)N(C)CC(=O)N1CCN(c2ccccc2OC)CC1 | – | inconclusive: 25.1 µM [activator, single point] |
| CCOC(=O)N1CCN(C(=O)CN(c2ccc(C)cc2C)S(=O)(=O)c2ccccc2)CC1 | – | inconclusive: 31.6 µM [activator, single point] |
| O=C1CN(C(=O)CSc2nc3cc(Cl)ccc3c(=O)n2Cc2ccccc2)c2ccccc2N1 | – | inconclusive: 39.8 µM [inhibitor, single point] |
| CCOC(=O)N1CCN(C(=O)C2CCC(CNS(=O)(=O)c3ccc(Cl)cc3)CC2)CC1 (stereo unspecified) | – | inconclusive: 31.6 µM [activator, single point] |
| O=C1CSC(c2cn(-c3ccccc3)nc2-c2cc3ccccc3o2)N1Cc1ccccc1 (stereo unspecified) | – | inconclusive: 39.8 µM [inhibitor, single point] |
| O=C(CCCCn1c(=O)[nH]c2ccsc2c1=O)N1CCN(c2cccc(Cl)c2)CC1 | – | inconclusive: 31.6 µM [activator, single point] |
| Nc1ccc(N(S(=O)(=O)c2ccccc2)S(=O)(=O)c2ccccc2)c(Cl)c1 | inactive: -8.03% | – |
| Cc1noc(/C=C/c2ccco2)c1S(=O)(=O)N1CCC(C(=O)N2c3ccccc3CC2C)CC1 (stereo unspecified) | – | inconclusive: 39.8 µM [inhibitor, single point] |
| O=C(NC(=S)Nc1ccc(Cl)cn1)C(c1ccccc1)c1ccccc1 | – | inconclusive: 39.8 µM [inhibitor, single point] |
| CC1CC(C)CN(c2ccc(C(=O)OCC(=O)NC3CCCc4ccccc43)cc2[N+](=O)[O-])C1 (stereo unspecified) | – | inconclusive: 39.8 µM [inhibitor, single point] |
| CCOc1ccc(C(=O)NCC(=O)OCC(=O)c2ccc3c(c2)-c2ccccc2C3)cc1 | – | inconclusive: 15.8 µM [inhibitor, partial curve] |
| Cc1cc(C)c2nc(NNC(=O)c3cc(-c4cccs4)nc4ccccc34)sc2c1 | – | inconclusive: 12.6 µM [inhibitor, partial curve, poor fit] |
| COc1ccc(Cl)cc1NC(=O)[C@H]1O[C@@H]2OC(C)(C)O[C@@H]2[C@H]2OC(C)(C)O[C@H]21 | – | inconclusive: 39.8 µM [activator, single point] |
| OCC1=CC[N+]2(Cc3ccccc3)CCC(O)[C@@H]12 (stereo partly specified) | inactive: -6.48% | – |
| COc1ccc(Cl)cc1N(C)C(=O)Cn1cnc2sc(C)c(S(=O)(=O)N3CCN(c4ncccn4)CC3)c2c1=O | – | inconclusive: 31.6 µM [activator, single point] |
| Cc1ccc(C)c(CN2C(=O)c3ccccc3S(=O)(=O)c3ccc(C(=O)N4CCOCC4)cc32)c1 | – | inconclusive: 31.6 µM [activator, partial curve] |

| Structure (SMILES) | max response, negative = inhibition | Potency |
| --- | --- | --- |
| CCOC(=O)c1c(C)[nH]c(C)c1S(=O)(=O)N1CCCC(C(=O)N2CCN(c3cc(C)ccc3C)CC2)C1 (stereo unspecified) | – | inconclusive: 25.1 µM [activator, partial curve] |
| COc1cc2c(cc1NC(=O)C(c1ccccc1)c1ccccc1)CCCC2 | – | inconclusive: 39.8 µM [inhibitor, single point] |
| COc1ccccc1C1=Nn2c(nnc2C2CCCCC2)SC1 | – | inconclusive: 15.8 µM [inhibitor, partial curve] |
| CCCCCCCCCn1cc(C(C)=O)c(=O)[nH]c1=O | – | inconclusive: 31.6 µM [inhibitor, single point] |
| O=C1CC2C(CC(OC(=O)c3ccc(-c4ccccc4)cc3)C2CO)O1 (stereo unspecified) | – | inconclusive: 39.8 µM [activator, single point] |
| CCOc1ccccc1CNC(=O)CCCN1C(=O)CCn2nc(-c3cccn3C)cc21 | – | inconclusive: 31.6 µM [activator, single point] |
| CCn1c2ccccc2c2cc(NC(=O)COC(=O)C3CCC(=O)N3)ccc21 (stereo unspecified) | – | inconclusive: 25.1 µM [activator, single point] |
| Cc1cc(C)c[n+](-c2nc3ccccc3nc2[N-]S(=O)(=O)c2ccc(Cl)cc2)c1 | – | inconclusive: 31.6 µM [activator, single point] |
| CCCCn1cnc2c1c(=O)n(CC(=O)c1cc(C)n(C)c1C)c(=O)n2CC(C)C | – | inconclusive: 31.6 µM [activator, partial curve] |
| COCCNC(=O)c1ccc2c(=O)n(Cc3ccco3)c(SCC(=O)NC3CCCC3)nc2c1 | – | inconclusive: 39.8 µM [activator, single point] |
| CCc1nc(N)c(C#N)c(-c2ccc(F)cc2)c1C | – | inconclusive: 31.6 µM [inhibitor, single point] |
| O=C1Nc2ccccc2Oc2cc(Oc3ccc(Cl)cc3)ccc21 | – | inconclusive: 15.8 µM [inhibitor, single point] |
| Cc1ccc(NCCC(=O)c2ccc(Br)cc2)cc1 | – | active: 20 µM |
| COc1ccc(N(CC(=O)Nc2ccc3c(c2)OCCO3)S(=O)(=O)c2c(C)nn(C)c2C)cc1 | – | inconclusive: 39.8 µM [activator, single point] |
| COc1cccc(NC(=O)CSc2nc3c(c(=O)n2C)SC(C)C3)c1 (stereo unspecified) | inactive: 0.546% | – |
| Cc1cccc(OCC(=O)NC(=S)Nc2ccc(S(=O)(=O)NC3CCCCC3)cc2)c1 | – | inconclusive: 25.1 µM [inhibitor, single point] |
| COc1ccccc1NC(=O)Cc1csc(NC(=S)Nc2ccc(C)cc2)n1 | – | inconclusive: 39.8 µM [inhibitor, single point] |
| FC(F)(F)c1cc(CO[C@H]2CCCN[C@H]2c2ccccc2)cc(C(F)(F)F)c1 | inactive: 6.24% and inactive: 7.53% | – |
| CCc1cccc(C)c1NC(=O)c1cnn(-c2ccc(F)cc2)c1-n1cccc1 | inactive: -15.1% | – |

Reference: PubChem BioAssay AID1476 (National Center for Advancing Translational Sciences (NCATS), 2009)
